The text below walks through data of the supplement of paper PMC12217912.

The list shows a part of the results. The full chains were built here from the parent and the listed change. Values near 0.05 are background.

The labels stand for the following.
B1: TEV protease; numbered along this chain (parent)
chain: MGESLFKGPRDYNPISSSICHLTNESDGHTTSLYGIGFGPFIITNKHLFRRNNGTLVVQSLHGVFKVKDTTTLQQHLVDGRDMIIIRMPKDFPPFPQKLKFREPQREERICLVTTNFQTKSMSSMVSDTSCTFPSGDGIFWKHWIQTKDGQCGSPLVSTRDGFIVGIHSASNFTNTNNYFTSVPKNFMELLTNQEAQQWVSGWRLNADSVLWGGHKVFMVKPEEPFQPVKEATQL

Variants of B1 are the subject of the test. The experiment in a line: raw area under fraction-flipped curve 0-4 h after induction (AUC4h, not background-subtracted), DNA-recorder readout of cleavage of the substrate (dimensionless); higher = more cleavage of the substrate by the protease variant. The settings on record: temperature: 34 °C; time window: 0-4 h after rhamnose induction. On the procedure: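 In vivo DNA recorder in E. coli TOP10(DE3) ΔrhaA at 34 °C. Each TEVp single-site mutant (parent TEVp 0) is paired with a single-site variant of the 7-mer TEVs (canonical ENLYFQ|S). The substrate sits between flexible linkers in a Bxb1-sfGFP-TEVs-SsrA fusion, so cleavage stabilises Bxb1 and speeds flipping of a recombination array, read by NGS. The value is the raw area under the fraction-flipped curve over 0-4 h after rhamnose induction (AUC4h), with ≥20 reads per time point. It is not background-subtracted; inactive controls average about 0.047.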
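Further: Bxb1 expression induced with 0.2% (w/v) L-rhamnose at OD600 near 0.5, cultures sampled hourly, flipped fraction per protease–substrate barcode pair counted by paired-end Illumina sequencing.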

MGESLFKGPRDYNPISSSICHLTNESDGHTTSLYGIGFGPFIITNKHLFRRNNGTLVVQSLHGVFKVKDTTTLQQHLVDGRDMIIIRMPKDFPPFPQKLKFREPQREERICLVTTNFQTKSMSSMVSDTSCTFPSGDGIFWKHWIQTKDGQCGSPLVSTRDGFIVGIHSASNFTNTNNYFTSVPKNFMELLTNQEAQQWVSGWRLNADSVLWGGHKVFMVKPEEPFDPVKEATQL [Q227D]: the “area with substrate ENLYAQS” value is 0.0731, the “area with substrate ENLYDQS” value was found to be 0.0583, the “area with substrate ENLYGQS” value was found to be 0.0646 and the “area with substrate ENLYIQS” value worked out at 0.165. Besides, the “area with substrate ENLYKQS” value stood at 0.0621, the “area with substrate ENLYLQS” value was 0.109, the “area with substrate ENLYPQS” value came to 0.0688 and the “area with substrate ENLYSQS” value amounted to 0.128. Moreover, the “area with substrate ENLYWQS” value amounted to 0.106.
For MGESLFKGPRDYNPISSSICHLTNESDGHTTSLYVIGFGPFIITNKHLFRRNNGTLVVQSLHGVFKVKDTTTLQQHLVDGRDMIIIRMPKDFPPFPQKLKFREPQREERICLVTTNFQTKSMSSMVSDTSCTFPSGDGIFWKHWIQTKDGQCGSPLVSTRDGFIVGIHSASNFTNTNNYFTSVPKNFMELLTNQEAQQWVSGWRLNADSVLWGGHKVFMVKPEEPFQPVKEATQL [G35V], the “area with substrate ENLYCQS” value stood at 0.0412, the “area with substrate ENLYDQS” value came to 0.0294, the “area with substrate ENLYEQS” value turned out to be 0.0466 and the “area with substrate ENLYIQS” value is 0.0368. The “area with substrate ENLYKQS” value was 0.0452, the “area with substrate ENLYMQS” value came out at 0.0376, the “area with substrate ENLYPQS” value was determined as 0.0308 and the “area with substrate ENLYSQS” value worked out at 0.0462. The “area with substrate ENLYTQS” value came to 0.0551, the “area with substrate ENLYVQS” value came out at 0.0582, the “area with substrate ENLYWQS” value was determined as 0.0428 and the “area with substrate ENLYYQS” value came to 0.0424.
For MGESLFKGPRDYNPISSSICHLTNESDGHTTSLYGIGFGPFIITNKHLFRRNNGTLVVQSLHGVFKVKDTTTLQQHLVDGRDMIIIRMPKDFPPFPQKLKFREPQREERICLVTTNFQTKSMSSMVSDTSCTFPSGDGIFWKHWIQTKDGQCGSPLVSTRDGFIVGIHSASNFTNTNNYFTSVPKNFMELLTNQEAQQWVSGWRLNADHVLWGGHKVFMVKPEEPFQPVKEATQL [S209H], the “area with substrate ENLYAQS” value was 0.0862, the “area with substrate ENLYEQS” value was found to be 0.0616, the “area with substrate ENLYGQS” value worked out at 0.0389 and the “area with substrate ENLYHQS” value stood at 0.0551. The “area with substrate ENLYKQS” value stood at 0.0609, the “area with substrate ENLYNQS” value turned out to be 0.0764, the “area with substrate ENLYPQS” value turned out to be 0.0819 and the “area with substrate ENLYRQS” value stood at 0.0534. The “area with substrate ENLYSQS” value is 0.0819, the “area with substrate ENLYVQS” value was 0.131, the “area with substrate ENLYWQS” value amounted to 0.0857 and the “area with substrate ENLYYQS” value is 0.0666.
As for MGESLFKGPRDYNPISSSICHLTNESDGHTTSLYGIGFGPFIIMNKHLFRRNNGTLVVQSLHGVFKVKDTTTLQQHLVDGRDMIIIRMPKDFPPFPQKLKFREPQREERICLVTTNFQTKSMSSMVSDTSCTFPSGDGIFWKHWIQTKDGQCGSPLVSTRDGFIVGIHSASNFTNTNNYFTSVPKNFMELLTNQEAQQWVSGWRLNADSVLWGGHKVFMVKPEEPFQPVKEATQL [T44M], the “area with substrate ENLYCQS” value came out at 0.0528, the “area with substrate ENLYDQS” value came out at 0.0503, the “area with substrate ENLYEQS” value amounted to 0.0621 and the “area with substrate ENLYGQS” value turned out to be 0.053. The “area with substrate ENLYHQS” value turned out to be 0.0617, the “area with substrate ENLYIQS” value is 0.0637, the “area with substrate ENLYKQS” value was determined as 0.0588 and the “area with substrate ENLYLQS” value came to 0.0649. Further, the “area with substrate ENLYMQS” value amounted to 0.0567, the “area with substrate ENLYNQS” value was 0.066, the “area with substrate ENLYPQS” value came out at 0.0471 and the “area with substrate ENLYQQS” value is 0.0478. Besides, the “area with substrate ENLYRQS” value was 0.0919, the “area with substrate ENLYSQS” value was determined as 0.0258, the “area with substrate ENLYTQS” value worked out at 0.0805 and the “area with substrate ENLYVQS” value is 0.0669. For the same variant, the “area with substrate ENLYYQS” value is 0.0478.
In the case of MGESLFKGPRDYNPISSSICHLTNESDGHTTSLYGIGFGPFIITNKHLFRRNNGTLVVQSLHGVFKVKDTTTLQQHLVDGRDMIIIRMPKDFPPFPQKLKFREPQREERICLVTTNFQTKSMSSMVSDTSCTFPSGDGIFWKHWIQTKDGQCGSPLVSTRDGFIVGIHSASNFTNTNNYFTSVPKNFMELLTNQEAQQWVSGWRLNADSVLWGGHKVFMVKPEEPFQPVKEATQP [L235P], the “area with substrate ENLYAQS” value was 0.0615, the “area with substrate ENLYMQS” value is 0.0756, the “area with substrate ENLYNQS” value is 0.0499 and the “area with substrate ENLYPQS” value is 0.0685. In addition, the “area with substrate ENLYSQS” value worked out at 0.0757 and the “area with substrate ENLYWQS” value was found to be 0.112.
On to MGESLFKGPRDYNPISSSICHLTNESDGHTTSLYGIGFGPFIITNKHLFRRNNGTLVVQSLHGVFKVKDTTTLQQHLVDGRDMIIIRMPKDFPPFPQKLKFREPQREERICLVTTNFQTKSMSSMVSDTSCTFPSGDGIFWKHWIQTKDGQCGSPLVSTRDGFIVGIHSASNFTNTNNYFTSVPKNFMELLTNQEAQQWVSGWRLNADSVLWGGHKVFMVKPEEPFQPVKEATQT [L235T], for which the “area with substrate ENLYAQS” value was 0.0917, the “area with substrate ENLYCQS” value came to 0.115, the “area with substrate ENLYDQS” value was determined as 0.0631 and the “area with substrate ENLYEQS” value is 0.0749. Further, the “area with substrate ENLYGQS” value stood at 0.0601, the “area with substrate ENLYHQS” value is 0.068, the “area with substrate ENLYSQS” value amounted to 0.0856 and the “area with substrate ENLYTQS” value worked out at 0.0904. Moreover, the “area with substrate ENLYVQS” value worked out at 0.094 and the “area with substrate ENLYWQS” value came out at 0.079.
On to MGESLFKGPRDYNPISSSICHLTNESDGHTTSLYGIGFGPFIITNKHLFRRNNGTLVVQSLHGVFKVKDTTTLQQHLVDGRDMIIIRMPKDFPPFPQKLKFREPQREERICLVTTNFQTKSMSSMVSDTSCTFPSGDGIFWKHWIQTKDGQCGSPLVSTRDGFIVGIHSASNFTNTNNYFTSVPKNFMELLTNQEAQQWVSGWRLNADSVLWGGHKVFMVKPEEPFQPVKEATQC [L235C], for which the “area with substrate ENLYAQS” value is 0.0692, the “area with substrate ENLYDQS” value was found to be 0.065, the “area with substrate ENLYGQS” value worked out at 0.0562 and the “area with substrate ENLYMQS” value came to 0.0577. In addition, the “area with substrate ENLYNQS” value was 0.0691, the “area with substrate ENLYSQS” value amounted to 0.0808 and the “area with substrate ENLYVQS” value is 0.12.
For MGESLFKGPRDYNPISSSICHLTNESDGHTTSLYGIGFGPFIITNKHLFRRNNGTLVVQSLHGVFKVKDTTTLQQHLVDGRDMIIIRMPKDFPPFPQKLKFREPQREERICLVTTNFQTKSMSSMVSDTSCTFPSGDGIFWKHWIQTKDGQCGSPLVSTRDGFIVGIHSASNFTNTNNYFTSVPKNFMELLTNQEAQQWVSGWRLNADSVLWGGHKVFMVKLEEPFQPVKEATQL [P222L], the “area with substrate ENLYAQS” value is 0.115, the “area with substrate ENLYDQS” value stood at 0.0651, the “area with substrate ENLYEQS” value is 0.0618 and the “area with substrate ENLYHQS” value was 0.0802. Also, the “area with substrate ENLYKQS” value turned out to be 0.058, the “area with substrate ENLYLQS” value is 0.0826, the “area with substrate ENLYNQS” value turned out to be 0.055 and the “area with substrate ENLYQQS” value worked out at 0.0477. Moreover, the “area with substrate ENLYVQS” value was 0.0938, the “area with substrate ENLYWQS” value turned out to be 0.0631 and the “area with substrate ENLYYQS” value was found to be 0.0459.
On to MGESLFKGPRDYNPISSSICHLTNESDGHTTSLYGIGFGPFIITNKHLFRRNNGTLVVQSLHGVFKVKDTTTLQQHLVDGRDMIIIRMPKDFPPFPQKLKFREPQREERICLVTTNFQTKSMSSMVSDTSCTFPSGDGIFWKHWIQTKDGQCGSPLVSTRDGFIVGIHSASNFTNTNNYFTSVPKNFMELLTNQEAQQWVSGWRLNADSVLWGGHKVFMSKPEEPFQPVKEATQL [V220S], for which the “area with substrate ENLYAQS” value is 0.0836, the “area with substrate ENLYDQS” value stood at 0.0685, the “area with substrate ENLYEQS” value stood at 0.0818 and the “area with substrate ENLYGQS” value came out at 0.0653. Further, the “area with substrate ENLYNQS” value turned out to be 0.0798, the “area with substrate ENLYPQS” value is 0.0525, the “area with substrate ENLYRQS” value came out at 0.0739 and the “area with substrate ENLYSQS” value worked out at 0.0679. The “area with substrate ENLYWQS” value was determined as 0.0978.
For the variant MGESHFKGPRDYNPISSSICHLTNESDGHTTSLYGIGFGPFIITNKHLFRRNNGTLVVQSLHGVFKVKDTTTLQQHLVDGRDMIIIRMPKDFPPFPQKLKFREPQREERICLVTTNFQTKSMSSMVSDTSCTFPSGDGIFWKHWIQTKDGQCGSPLVSTRDGFIVGIHSASNFTNTNNYFTSVPKNFMELLTNQEAQQWVSGWRLNADSVLWGGHKVFMVKPEEPFQPVKEATQL [L5H], the “area with substrate ENLYCQS” value turned out to be 0.0879, the “area with substrate ENLYDQS” value came out at 0.0691, the “area with substrate ENLYEQS” value amounted to 0.0725 and the “area with substrate ENLYGQS” value amounted to 0.0601. The “area with substrate ENLYHQS” value came to 0.0832, the “area with substrate ENLYIQS” value was determined as 0.141, the “area with substrate ENLYKQS” value turned out to be 0.0618 and the “area with substrate ENLYMQS” value was 0.107. For the same variant, the “area with substrate ENLYNQS” value was found to be 0.069, the “area with substrate ENLYSQS” value came out at 0.0847 and the “area with substrate ENLYVQS” value amounted to 0.0952.
